# According to paper PMC4336329 (PLoS ONE, 2015):
# Out of some 310,000 compounds screened, about 14,000 (4.5%) showed an effect of 50% or more. The effect is printed as a negative number. Some of the results follow.
# Molecular target: human ether-à-go-go-related gene (hERG) potassium channel (human, UniProt Q12809)
# Assay: primary screen, population patch clamp on CHO cells stably expressing hERG
# 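Further: peak tail current of the secondary pulse compared with the same well before compound.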
# Chain of human ether-à-go-go-related gene (hERG) potassium channel (Q12809 whole entry, looked up): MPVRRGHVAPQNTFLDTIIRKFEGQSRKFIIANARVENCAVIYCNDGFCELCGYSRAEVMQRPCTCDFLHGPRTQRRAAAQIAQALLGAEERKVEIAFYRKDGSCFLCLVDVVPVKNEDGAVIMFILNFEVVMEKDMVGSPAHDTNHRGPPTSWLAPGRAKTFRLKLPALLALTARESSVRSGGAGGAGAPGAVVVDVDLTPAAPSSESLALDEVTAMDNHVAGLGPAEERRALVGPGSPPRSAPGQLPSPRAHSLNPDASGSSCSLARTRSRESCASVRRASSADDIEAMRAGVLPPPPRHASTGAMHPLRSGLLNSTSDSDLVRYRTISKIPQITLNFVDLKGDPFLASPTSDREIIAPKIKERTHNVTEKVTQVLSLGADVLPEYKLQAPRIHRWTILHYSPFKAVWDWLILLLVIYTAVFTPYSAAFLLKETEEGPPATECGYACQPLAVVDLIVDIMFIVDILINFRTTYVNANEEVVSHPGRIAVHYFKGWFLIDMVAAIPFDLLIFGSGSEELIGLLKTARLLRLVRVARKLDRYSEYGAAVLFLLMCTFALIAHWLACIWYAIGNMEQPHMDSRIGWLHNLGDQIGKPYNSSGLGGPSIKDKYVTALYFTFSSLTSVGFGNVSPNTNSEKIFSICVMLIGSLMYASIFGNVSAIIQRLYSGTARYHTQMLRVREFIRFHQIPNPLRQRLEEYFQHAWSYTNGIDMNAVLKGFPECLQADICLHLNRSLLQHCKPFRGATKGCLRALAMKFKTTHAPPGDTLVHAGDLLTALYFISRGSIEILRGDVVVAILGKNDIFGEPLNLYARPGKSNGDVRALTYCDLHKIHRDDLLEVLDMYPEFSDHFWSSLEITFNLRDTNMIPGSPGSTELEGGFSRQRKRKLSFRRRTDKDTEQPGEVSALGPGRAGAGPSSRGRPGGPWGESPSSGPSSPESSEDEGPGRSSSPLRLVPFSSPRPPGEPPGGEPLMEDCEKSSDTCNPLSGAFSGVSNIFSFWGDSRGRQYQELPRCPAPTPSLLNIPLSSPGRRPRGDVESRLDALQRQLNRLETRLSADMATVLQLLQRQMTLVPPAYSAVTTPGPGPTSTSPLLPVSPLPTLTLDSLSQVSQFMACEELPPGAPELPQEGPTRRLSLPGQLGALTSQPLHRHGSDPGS
row,SMILES,"hERG current change (%, negative = inhibition) at 10uM"
1,CCOC(=O)C1=C(c2ccccc2)NC(=O)NC1c1ccc(OC)cc1 (centres unmarked),-6.84%
2,O=C(CSc1ccc(Cl)cc1)NC1=NN(c2ccccc2)C(=O)C1,17.5%
3,CCN(CC)CCNC(=O)c1cc2c(-c3ccc(Cl)cc3)nn(C)c2s1,-69.6%
4,Cl.Clc1cc(I)cc(Cl)c1NC1=NCCN1,-1.37%
5,Cc1ccc(Cl)cc1N1CCN(C(=O)c2ccc3nc[nH]c3c2)CC1,-38.1%
6,CC(C)N(C(=O)Cn1c(SCC(=O)Nc2nccs2)nc2ccccc21)C(C)C,12.6%
7,O/N=C1/C2C3CC4C5C3C1C5C1(OCCO1)C42 (centres unmarked),4.44%
8,Cc1ccc(NS(=O)(=O)c2ccc(C(=O)NCC3CCCO3)cc2)cc1 (centres unmarked),5.49%
9,O=C(Cc1ccc(-n2c(=O)c3sccc3n(CC(=O)Nc3ccccc3)c2=O)cc1)NCc1ccco1,13.7%
10,CC(=O)Nc1ccc(/C(C)=N/Nc2nc(N3CCOCC3)nc(N3CCOCC3)n2)cc1,27%
11,Nc1c(Cl)ncnc1N1CCCC1,21.4%
12,CC(=O)NCCc1ccc(C(=O)CSc2nnc(C3CC3)n2C2CC2)cc1,15.6%
13,COc1cccc(CN2CCC(C(=O)N3CCN(Cc4ccc5c(c4)OCO5)CC3)CC2)c1,-19.8%
14,C[C@H](NC(=O)N1CCn2c1nc1ccccc12)C(=O)NCc1ccc2c(c1)OCO2,-36.6%
15,Cc1cc(NC(=O)CSc2nc3ccccc3cc2C#N)no1,0.0832%
16,Cc1sc(NC(=O)CCS(=O)(=O)c2ccccc2)c(C#N)c1C,14.7%
17,O=C1CCN(C(=O)c2ccccc2)C2CCCCC12 (centres unmarked),-5.77%
18,c1cnc2ccc(C(c3nnnn3C3CCCCC3)N3CCN(C4CCCCC4)CC3)cc2c1 (centres unmarked),-78.8%
19,CN(CC(=O)Nc1ccccc1C(F)(F)F)C(=O)C1CCN(C(=O)c2ccc(Cl)cc2)CC1,-31.8%
20,Cc1ccc(CN2C(=O)c3ccccc3NC2c2cc(Br)ccc2O)cc1 (centres unmarked),8.23%
21,CNS(=O)(=O)c1cc(C(=O)NCc2ccco2)ccc1Cl,1.66%
22,CC(=O)Nc1ccc([N+](=O)[O-])c(CS(=O)(=O)c2ccc(C)cc2)c1[N+](=O)[O-],-19.1%
23,Cc1ccc(NC(=O)CSc2ccccc2NC(=O)c2cccc(Cl)c2)cc1Cl,-5.6%

row,SMILES,"hERG current change (%, negative = inhibition) at 10uM"
1,CC(=O)NC(=S)Nc1cccc2ccc(C)nc12,3.25%
2,Cc1cc(NC(=O)CSc2nnc3c4c(C)c(C)sc4ncn23)no1,-0.766%
3,COC(=O)c1ccc(Cn2nnc3c(=O)[nH]c(C4CCCN(S(=O)(=O)c5cccc(Cl)c5)C4)nc32)cc1 (centres unmarked),11.4%
4,Cc1c(Br)c([N+](=O)[O-])nn1CC(=O)N1CCN(C23CC4CC(CC(C4)C2)C3)CC1,-38.1%
5,COc1cc(OC)c(OC)cc1/C=N/NC(=O)C[n+]1ccccc1.[Cl-],-12.6%
6,CSc1nnc(COc2ccc(C)cc2)n1N,24.8%
7,CC(C)N(Cc1ccccc1)C(=O)c1cccs1,10%
8,COc1cccc(NC(=O)C(=O)N/N=C(\C)CC(=O)Nc2ccc(NC(C)=O)cc2)c1,24.4%
9,Cl.c1ccc(CC2=NCCN2)cc1,7.57%
10,Cc1ccc(Cl)cc1Nc1nc(-c2sc(NC(=O)c3ccccc3)nc2C)cs1,-11.7%
11,CCN(CC(=O)Nc1c(F)cccc1F)C(=O)c1cnccn1,-0.365%
12,O=C(Nc1scc(-c2ccccc2)c1C(=O)O)c1ccc(F)cc1,34%
13,Cc1nc(CC(=O)NNS(=O)(=O)c2ccc(F)c(Cl)c2)cs1,20%
14,Cn1c(SCC(=O)N2CCCC2)nnc1-c1cccs1,4.73%
15,CCOC(=O)N1CCN(C(=O)CNC(=O)c2nn(-c3ccc(OC)cc3OC)c(=O)c3ccccc23)CC1,-4.94%
16,CCc1nnc(NC(=O)CCC(=O)NC2CCCC2)s1,-3.36%
17,O=C(CNC(=O)c1cc2c(s1)CCC2)Nc1ccccc1Br,11.6%
18,COc1ccccc1NC(=O)N1CCc2c([nH]c3ccccc23)C1C(F)(F)F (centres unmarked),-0.609%
19,CCN1CCN(CCNC(=O)CCCn2nc(C)c3c(C)n(-c4ccc(C)cc4)nc3c2=O)CC1,0.678%
20,COc1ccc(Oc2c(C)oc3c(CN(C)C)c(O)ccc3c2=O)cc1,-1.88%
21,O=C(NCc1ccc2c(c1)OCO2)C(=O)Nc1cc2c3c(c1)CC(=O)N3CCC2,-11%
22,COc1ccccc1N1CCN(C(=S)Nc2ccc(S(=O)(=O)N3CCOCC3)cc2)CC1,12.1%
23,O=C(NNC(=S)Nc1ccccc1Cl)C1CC1,15.8%

row,SMILES,"hERG current change (%, negative = inhibition) at 10uM"
1,Cc1cccc(C)c1NC(=S)NC(=O)c1ccc(Br)o1,-2.33%
2,CCOc1ccc(-c2nc(C#N)c(NCc3ccc4c(c3)OCO4)o2)cc1,11.3%
3,Cn1c(-c2ccc(C=O)s2)nc2ccccc21,-7.61%
4,Cc1ccc(C2(C)NC(=O)N(Cc3c(C)noc3C)C2=O)cc1 (centres unmarked),4.32%
5,CCOc1ccc(NC(=O)CN2CCN(C3c4ccccc4-c4ccccc43)CC2)cc1,-40.3%
6,O=C(NNc1ccc([N+](=O)[O-])cc1)C1CC1c1ccccc1 (centres unmarked),-15.1%
7,C/C(=N\NC(=O)c1ccc(Cl)cc1)c1ccc(Br)s1,2.93%
8,CC(C)c1ccc(NC2CCCN(C(=O)c3ccco3)C2)cc1 (centres unmarked),12.5%
9,COc1ccc(OC)c(-n2c(-c3ccccc3)n[nH]c2=S)c1,11.3%
10,COc1cccc(CN2CCN(Cc3ccc(O)c(OC)c3)CC2CCO)c1 (centres unmarked),-5.76%
11,O=C(CCCOc1ccccc1)Nc1nccs1,-13%
12,O=S1c2ccccc2Nc2ccccc21,16.2%
13,CCOC(=O)C(CO)(NC(C)=O)C(=O)OCC,11.3%
14,O=C(C1CCN(S(=O)(=O)c2cccc3nsnc23)CC1)N1CCCc2ccccc21,-24%
15,CC1CC(NS(=O)(=O)c2cc3c4c(c2)CCN4C(=O)CC3)CC(C)(C)C1 (centres unmarked),-63.1%
16,COC(=O)c1cn(CC(=O)NCc2cccs2)c2ccccc12,7.93%
17,CSc1ccc(NC(=O)c2cccnc2)cc1C#N,6.39%
18,O=C(Cc1ccccc1)NN1C(=O)C2C3C=CC(C3)C2C1=O (centres unmarked),12.4%
19,CN1CCN(C(=O)C2CCN(c3ncc(C(F)(F)F)cc3Cl)CC2)CC1,-11.4%
20,O=[N+]([O-])c1ccc(Cl)c(S(=O)(=O)Nc2ccc(-c3ccc(N4CCCC4)nn3)cc2)c1,-4.5%
21,O=C(Cn1cnc2cc([N+](=O)[O-])ccc2c1=O)Nc1cccc(S(=O)(=O)N2CCOCC2)c1,-33.2%
22,CCCC(C)C(=O)Nc1ccc(S(=O)(=O)N2CCCC2)cc1 (centres unmarked),8.89%
23,CN(CCC1CCOCC1)C(=O)CC1C(=O)NCCN1CC1CCCCC1 (centres unmarked),-0.614%

row,SMILES,"hERG current change (%, negative = inhibition) at 10uM"
1,COc1ccc(CN(CC2CCCO2)S(=O)(=O)c2ccc(-n3cnnn3)c(OC)c2)cc1 (centres unmarked),-44%
2,CSCCC(NS(=O)(=O)c1ccccc1F)C(=O)NC(C)c1ccccc1 (centres unmarked),13.8%
3,COc1ccc(/C=C2\N=C(SC)N(C)C2=O)cc1,-13.7%
4,CC1N(C)c2cc(NC(=O)c3ccco3)ccc2C1(C)C (centres unmarked),-13.9%
5,Cc1ccc(-n2cnc(N)c2C(=O)c2cccc([N+](=O)[O-])c2)cc1,-28%
6,CC(C)(C)c1ccc(Oc2ccc(NC(=O)c3cccs3)cn2)cc1,7.09%
7,COc1cc(/C=N/NC(=S)NCCN2CCOCC2)ccc1O,4.92%
8,Cc1cc(C)nc(N2CCCC(C(=O)NC3CCCC3)C2)n1 (centres unmarked),-6.97%
9,COc1ccc(CNC(=O)CN2C(=O)COc3ccc(S(=O)(=O)N4CCOCC4)cc32)cc1,8.85%
10,O=C(COc1ccc(Cl)cc1Cl)Nc1cccnc1,14.5%
11,Cc1ccccc1C(=O)N=c1ccn(-c2nc3ccccc3nc2NS(=O)(=O)c2ccccc2)cc1,21.9%
12,Cc1ccc(/C(O)=C2/C(=O)C(=O)N(Cc3ccco3)C2c2cccs2)cc1 (centres unmarked),-8.53%
13,CN(C)S(=O)(=O)c1cccc(-n2sc3ccccc3c2=O)c1,4.27%
14,O=C(O)CSCc1cn2cc(Cl)ccc2n1,0.861%
15,Cc1nc2ccc(S(=O)(=O)Nc3cccc(-c4nc5cccnc5s4)c3C)cc2s1,-10.8%
16,O=C(NC1CCC(NC(=O)C(F)(F)C(F)F)CC1)C(F)(F)C(F)F (centres unmarked),0.0363%
17,CCc1onc(C)c1C(=O)O,13.3%
18,Cc1ccc(NC(=O)CSCC(=O)Nc2ccccc2N2CCCC2)cc1,-13.6%
19,Cn1c(CC(=O)Nc2ccccc2)nnc1SCC(=O)NC1CCCC1,17.8%
20,CN(c1ccccc1)S(=O)(=O)c1nnc(NC(=O)C2CCCCC2)s1,2.6%
